Results reported in paper PMC4336329 (PLoS ONE, 2015).
The campaign covered roughly 310,000 compounds. About 2,200 (0.71%) showed an effect of 50% or more. Effects have a minus sign here. The list shows a part of the results.

Target: human ether-à-go-go-related gene (hERG) potassium channel (human, UniProt Q12809)
Experiment: primary screen, population patch clamp on CHO cells stably expressing hERG

Chain of human ether-à-go-go-related gene (hERG) potassium channel (Q12809 whole entry, looked up): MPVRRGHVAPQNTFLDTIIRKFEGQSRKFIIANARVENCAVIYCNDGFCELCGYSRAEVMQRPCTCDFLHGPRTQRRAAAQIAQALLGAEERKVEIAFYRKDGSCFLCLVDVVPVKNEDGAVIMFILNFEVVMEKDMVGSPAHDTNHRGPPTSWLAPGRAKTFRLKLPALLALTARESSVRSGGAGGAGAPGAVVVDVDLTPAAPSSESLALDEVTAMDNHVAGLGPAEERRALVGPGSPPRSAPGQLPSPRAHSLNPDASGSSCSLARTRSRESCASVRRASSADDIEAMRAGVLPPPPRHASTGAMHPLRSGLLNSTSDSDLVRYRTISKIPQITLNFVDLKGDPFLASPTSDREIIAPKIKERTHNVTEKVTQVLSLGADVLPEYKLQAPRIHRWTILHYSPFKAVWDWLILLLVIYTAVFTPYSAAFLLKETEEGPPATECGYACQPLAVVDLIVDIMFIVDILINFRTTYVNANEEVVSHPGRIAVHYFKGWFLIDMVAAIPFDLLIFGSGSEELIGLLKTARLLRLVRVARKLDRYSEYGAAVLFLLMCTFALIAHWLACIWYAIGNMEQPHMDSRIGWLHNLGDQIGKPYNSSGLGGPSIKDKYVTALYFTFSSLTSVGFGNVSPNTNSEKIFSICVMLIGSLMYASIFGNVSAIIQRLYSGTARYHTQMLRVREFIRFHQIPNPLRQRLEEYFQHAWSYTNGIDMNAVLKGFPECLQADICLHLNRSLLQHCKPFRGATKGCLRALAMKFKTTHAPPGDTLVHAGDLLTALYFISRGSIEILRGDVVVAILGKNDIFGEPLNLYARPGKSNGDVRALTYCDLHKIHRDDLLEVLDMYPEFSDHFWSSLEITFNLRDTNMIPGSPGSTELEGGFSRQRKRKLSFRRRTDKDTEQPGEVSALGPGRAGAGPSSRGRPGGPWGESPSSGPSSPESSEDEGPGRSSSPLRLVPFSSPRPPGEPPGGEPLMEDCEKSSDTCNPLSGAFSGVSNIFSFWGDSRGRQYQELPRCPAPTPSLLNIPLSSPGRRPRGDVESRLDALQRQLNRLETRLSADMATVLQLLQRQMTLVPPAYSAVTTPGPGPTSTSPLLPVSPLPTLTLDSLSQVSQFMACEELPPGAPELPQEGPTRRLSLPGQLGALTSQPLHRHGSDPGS

Compound | hERG current change (%, negative = inhibition) at 1uM
COc1ccc(-n2c(SCC(=O)NCCC(C)C)nc3ccsc3c2=O)cc1 | -1.44%
CC12CC3CC(C)(C1)CC(C(=O)NC(=S)N1CCOCC1)(C3)C2 | -2.54%
Fc1ccc(/C=N/NC(=S)Nc2cccnc2)cc1F | 6.51%
O=C(CN1CCSCC1)N/N=C/c1ccc(F)cc1 | -3.06%
CC1=C(C(=O)NCCc2ccc(C)cc2)C2(CCC(C)CC2)OC1=O (stereo not shown) | 13.1%
O=C1CSC(c2ccccn2)N1c1ccc2ccccc2c1 (stereo not shown) | -1.59%
O=C(O)C[C@H]1c2ccc(C(F)(F)F)cc2S(=O)(=O)N1Cc1ccccc1 | 15.8%
N#Cc1ccc(Nc2ccccc2)c(N)c1 | 5.67%
O=C(Cn1ncn2nc(-c3ccccc3)cc2c1=O)NCc1ccccn1 | 19.5%
O=C1CC(Cc2ccccc2)C(=O)N1Cc1ccco1 (stereo not shown) | 0.0823%
COc1ccc(/C=C/C(=O)c2ccc3c4c(cccc24)CC3)cc1OC | 13.9%
CCOCCCNC(=O)CN1C2CCC1CC(O)(c1ccc(OC)cc1)C2 (stereo not shown) | -5.17%
Cn1nc([N+](=O)[O-])nc1Oc1ccc(C(C)(C)C)cc1 | 12.9%
C/C(=N\NC(=O)c1ccncc1)c1cc2ccccc2oc1=O | 4.21%
Cc1ccc(CN2C(=O)CCC2(C)C(=O)NCc2cccnc2)cc1 (stereo not shown) | 5.78%
CCOCCCNC(=O)CN1C(=O)/C(=C/c2ccccc2C)Sc2ccccc21 | 5.65%
C[N+]12CCC(CC1)C(OC(=O)C(O)(c1ccccc1)c1ccccc1)C2.[Br-] (stereo not shown) | 10.3%
O=S(=O)(NCc1ccccc1Cl)c1ccc(-n2cnnn2)cc1 | 15.5%
COc1ccccc1OCCn1c(=O)oc2ccc(C)cc21 | 2.65%
COC(C[C@@H]1O[C@@H]1C(=O)[C@@H](C)OCc1ccccc1)OC | 22.8%

Compound | hERG current change (%, negative = inhibition) at 1uM
OCC[C@@H]1C[C@@H](O)[C@H](O)[C@]2(OCCc3ccccc32)O1 | 13.4%
CCOc1ccc(-c2cc(CCCC(=O)NCCC(C)C)no2)cc1 | 5.69%
CC1CCN(c2c(NCc3ccc(C(=O)N(C)C4CCCCC4)cc3)c(=O)c2=O)CC1 | 11.6%
CCNc1nc(Oc2ccc(C(=O)OC)cc2)nc(SC)n1 | 7.25%
O=C(CSc1nnc2ccc(-c3cccnc3)nn12)Nc1ccccc1F | 4.23%
CCOCCn1ccc2c(OCC(=O)Nc3ccccc3OC)cccc2c1=O | 15%
CN(CC(=O)Nc1ccc(F)cc1)CC(=O)NC1CCCCC1 | 6.41%
CCSc1ncc(Cl)c(C(=O)Nc2sc3c(c2C(=O)NCc2cccnc2)CCCC3)n1 | 14.5%
COc1ccc(C2C(C(=O)N3CCOCC3)=C(C)NC3=C2C(=O)CC(C)(C)C3)cc1O (stereo not shown) | 7.79%
CCCc1cc(=O)[nH]c(SCC(=O)Nc2ccc(Br)cc2)n1 | 3.57%
CCOCCCNC(=O)c1cc2c(=O)n3ccccc3nc2s1 | -8.87%
O=C(CSc1nnc(CNC(=O)c2ccc(F)cc2)o1)Nc1ccc2c(c1)OCO2 | 12%
CCn1c(C)c(C)c2cc(C(=O)Nc3cccc(Cl)c3)ccc21 | 9.86%
Cc1cc2nc(N3C(=O)CNC3=S)sc2cc1C | 14.3%
O=C(C1CCC(=O)N(C2CCCC2)C1)N1CCN(c2ccccc2Cl)CC1 (stereo not shown) | 9.21%
NC(N)=NC(=S)Nc1ccc(Cl)cc1 | 8.12%
CCn1c(COc2ccccc2)nnc1SCC(=O)Nc1ccc(N2CCOCC2)cc1 | 11.6%
COc1ccc(CN2CCNC(=O)C2CC(=O)N(Cc2nccn2C)C(C)C)c(OC)c1 (stereo not shown) | 0.692%
COc1cc(CNCCc2ccccc2F)ccc1OCc1ccc(Cl)nc1.Cl | -16.1%
COc1cccc(CNC(=O)c2ccc(CS(=O)c3ccccc3)o2)c1 (stereo not shown) | 6.26%

Compound | hERG current change (%, negative = inhibition) at 1uM
Cc1ccc(S(=O)(=O)NN=C2CCN(Cc3ccccc3)CC2)cc1 | 5.35%
O=C(CSc1ncccc1C(=O)O)NCc1ccc(F)cc1 | 0.121%
O=C(Oc1ccc(Cl)c2cccnc12)c1ccco1 | -3.58%
CCc1[nH]c(=S)c(C#N)c2c1CCCC2 | 14.4%
COc1cccc(C(=O)NCCC2=CCCCC2)c1 | 9.87%
CC1(C)SC(=S)N(NC(=O)Nc2ccccc2)C1N(O)C(=O)Nc1cccc2ccccc12 (stereo not shown) | 9.13%
CN(C)C(CNC(=O)CCC(=O)c1ccc(Br)cc1)c1ccccc1 (stereo not shown) | 7.41%
Cc1ccc(-n2ncc3c(NCCCn4ccnc4)ncnc32)c(C)c1 | -4.34%
O=c1cc(CN2CCN(CCO)CC2)c2cc3c(cc2o1)CCC3 | -5.45%
CCOC(=O)c1sc(NC(=O)CSc2nc3c(c(-c4ccc(OC)cc4)c2C#N)CCCC3)c(C#N)c1C | 31.6%
C=CCOc1ccc(C2NC(=O)c3ccccc3O2)cc1OCC (stereo not shown) | 11.4%
COc1ccc(CN(C)C2c3ccccc3-c3ccccc32)cc1 | 9.64%
CCc1ccc(-c2nc(SCC(=O)c3c(N)n(C4CC4)c(=O)[nH]c3=O)n[nH]2)cc1 | 1.89%
O=C(CCn1nc(-c2ccc(Cl)cc2)c2ccccc2c1=O)NN1CCOCC1 | -3.68%
Cn1c(SCC(=O)c2ccccc2)nnc1-c1cnccn1 | 3.2%
CC(=O)N1c2ccccc2N(Cc2ccc([N+](=O)[O-])cc2)C(=O)C1(C)C | 1.47%
CC1CCCN(C(=O)CSc2n[nH]c(-c3cccs3)n2)C1 (stereo not shown) | 12.2%
CCOC(=O)c1cc(C)n(-n2cnnc2)c1C | 2.64%
